The whole screen tested about 340,000 compounds, of which about 12,000 (3.5%) were called active. Inconclusive results, whose numbers are uncertain, are shown with a selection of clear calls. The call rests on the fitted dose curve; in most records, active means well fitted inhibition curve with a large enough effect; inconclusive means small, poorly fitted or top-dose-only effect, or another doubt; inactive means no such curve, though single readings can be large or run the other way. No potency is given beside an inconclusive call; the fits are too rough.
test: qHTS Assay for Inhibitors of Hepatitis C Virus (HCV); details: Huh7.5.1 HCVcc-Cre (HCVcc is cell-culture hepatitis C virus) infection, luciferase reporter, 44 h; activity change, negative = inhibition: at 41.8 µM (top of the series) unless noted
In short: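 Infectious HCV cell culture screen: compound-treated cells (1,000/well, pre-plated 4 h) are infected with HCVcc-Cre at roughly 0.5 moi and grown 44 h. Infection is quantified by luciferase signal after 15 min substrate incubation at room temperature.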
On the % scale 0 is the no-effect control and ±100 the full control effect; potency means the concentration at half of the fitted maximal effect; tags describe the fitted curve by direction and shape.

SMILES	Potency	activity change, negative = inhibition
O=c1c2cn[nH]c2nc(SCc2ccc3c(c2)OCCO3)n1-c1ccccc1	inconclusive [inhibitor, single point]	–
CN(Cc1cccc(F)c1)C(=O)c1ccccc1Sc1ccccc1C#N	inconclusive [inhibitor, full curve]	–
O=C(COC(=O)c1cc(S(=O)(=O)N2CCCC2)ccc1O)Nc1ccc(F)cc1F	–	inactive: -9.21%
O=C(NNc1ncnc2sccc12)c1ccc(Cl)cc1	inconclusive [inhibitor, partial curve]	–
CCOC(=O)CCc1c(C)nc(SCCN2CCCC2)c(C#N)c1C	inconclusive [inhibitor, partial curve]	–
COc1ccccc1N1CCN(Cc2nc(N)nc(Nc3ccccc3)n2)CC1	inconclusive [inhibitor, single point]	–
COc1ccc(/C=C/c2nc3ccccc3n2C)cc1	inconclusive [inhibitor, partial curve]	–
O=C(NCc1cccnc1)c1cnn2ccccc12	–	inactive: 1.35%
COc1ccc(OC)c(Nc2ccc(Nc3cc(OC)ccc3OC)nn2)c1	inconclusive [inhibitor, partial curve]	–
Cc1ccc(CN2CC(C(=O)Nc3cccc(C)n3)CC2=O)cc1 (configuration not stated)	–	inactive: 17.6%
O=C(COC(=O)C1=Cc2ccccc2OC1)NCc1ccc(F)cc1	–	inactive: 12.4%
Cc1cccc(C)c1NC(=O)C(=O)c1cn(C)c2ccccc12	inconclusive [inhibitor, full curve]	–
COc1ccc(S(=O)(=O)NCc2cccnc2)cc1NC(=O)c1ccc(Cl)cc1	–	inactive: -6.36%
COc1ccc(S(=O)(=O)N(CC(=O)N2CCN(c3ccccc3)CC2)c2ccccc2)cc1	inconclusive [inhibitor, full curve, poor fit]	–
c1ccc(-c2noc(-c3cccs3)n2)nc1	–	inactive: 12.5%
Cc1cccc(Nc2nc(N)nc(CSc3nccn3C)n2)c1	–	inactive: 0.729%
COc1ccc(-n2nnnc2SCC(=O)NCc2ccco2)cc1OC	–	inactive: 6.52%
COc1cc(OC)cc(C(=O)Nc2cccc(NC(=O)c3ccccc3)c2)c1	active: 10 µM	–
CSc1nc2ccc(S(=O)(=O)N3CCCC3)cc2s1	–	inactive: -9.53%
Cc1cccc(OCC(=O)N/N=C\c2cc3c(cc2[N+](=O)[O-])OCO3)c1C	active: 11.2 µM	–
CCC(=O)N1CCN(c2ccccc2NC(=O)c2ccc(-c3cccc([N+](=O)[O-])c3)o2)CC1	inconclusive [inhibitor, full curve]	–
COc1ccc2cc(C(=O)/C=C/c3cc(OC)c(O)c(OC)c3)ccc2c1	inconclusive [inhibitor, partial curve, poor fit]	–
Cc1ccc(OCC(=O)N/N=C\c2ccc(C)o2)c(C)c1	–	inactive: -10.4%
CCN(CC(=O)NC(C)(C)C)C(=O)COc1c(Cl)cc(Cl)c2ccc(C)nc12	inconclusive [inhibitor, partial curve]	–

SMILES	Potency	activity change, negative = inhibition
CCCOc1cccc(C(=O)Nc2ccc3c(c2)OCCO3)c1	inconclusive [inhibitor, single point]	–
CN1CCN(C(=O)C2CCN(S(=O)(=O)c3ccc4c(c3)oc(=O)n4C)CC2)CC1	–	inactive: 7.73%
Nc1nc(-c2cc(O)ccc2[N+](=O)[O-])cc(-c2ccccc2)c1[N+](=O)[O-]	inconclusive [inhibitor, partial curve]	–
Cc1nn(C)c(C)c1CNC(=O)c1cc2n(n1)C(C(F)(F)F)CC(c1cccs1)N2 (configuration not stated)	inconclusive [inhibitor, partial curve]	–
COc1ccc(N2C(=O)C3C(C2=O)C(C(=O)c2ccc(Cl)cc2)N2CCCC32)cc1 (configuration not stated)	–	inactive: 4.52%
CSc1ccccc1NC(=S)NC1CCCCC1	–	inactive: -14.5%
CCOC(=O)c1ccc(N2C(=O)CC(N3CCC(O)(c4ccc(Cl)cc4)CC3)C2=O)cc1 (configuration not stated)	–	inactive: -6.95%
COc1ccc(-c2noc(CN(C)C(=O)Nc3ccccc3)n2)cc1	inconclusive [inhibitor, single point]	–
CCOC(=O)C1=C(C)NC(C)=C(C(=O)OCC)C1C(=O)OCC(=O)NCc1ccc(F)cc1	active: 3.55 µM	–
COc1cc(C(=O)NCc2ccc3c(c2)cc(C)n3C)cc(OC)c1OC	inconclusive [inhibitor, single point]	–
Cc1ccc(O)c(CNc2nc3ccccc3n2C(C)C)c1	inconclusive [inhibitor, partial curve]	–
CC(C)N(C(=O)CSc1nc2ccccc2n1Cc1ccccc1)C(C)C	inconclusive [inhibitor, single point]	–
C=C1CCN([C@@H](CC(C)C)C(=O)NCc2ccc(Cl)c(Cl)c2)S(=O)(=O)c2ccccc21	inconclusive [inhibitor, partial curve]	–
N#Cc1c(/N=C/c2ccco2)oc(-c2ccccc2)c1-c1ccccc1	inconclusive [inhibitor, single point]	–
CCOC(=O)N1CCN(C(=O)CCCn2c(=O)[nH]c3ccccc3c2=O)CC1	–	inactive: 20.7%
CC(NC(=O)C1(c2cccs2)CCOCC1)c1ccccc1 (configuration not stated)	inconclusive [inhibitor, single point]	–
Oc1ccccc1-c1cc(-c2ccccc2)n[nH]1	inconclusive [inhibitor, single point]	–
Cn1c(N)c(C(=O)COC(=O)c2cc(C3CC3)nc3ccccc23)c(=O)n(C)c1=O	inconclusive [inhibitor, partial curve]	–
Oc1ccc(-c2csc(-c3cccnc3)n2)c(O)c1	inconclusive [inhibitor, single point]	–
Cc1nnc(SCC(=O)Nc2cc(S(=O)(=O)N3CCCC3)ccc2Cl)s1	–	inactive: 0.0892%
CC(C)(CNC(=S)NCCc1ccccc1)CNC(=S)NCCc1ccccc1	inconclusive [inhibitor, single point]	–
c1ccc(C[n+]2cccc3c4ccccc4ccc32)cc1	inconclusive [inhibitor, single point]	–
OC1CCN(Cc2cn(Cc3ccccc3)nc2-c2cc3ccccc3o2)CC1	inconclusive [inhibitor, single point]	–
